# Measurements reported in PubChem BioAssay AID463173 (ICCB-Longwood Screening Facility, Harvard Medical School, 2010).
# In all, about 52,000 compounds went through this assay and about 1,700 (3.3%) were called active. Cut-off read from the data, not from the text of the source: active = survival mostly below about 52% (no sharp cut-off); inactive = mostly above about 56%. The list shows a part of the results.
# Test system: Wild type
# Assay: S. aureus survival, RN4220 and DeltatarO strains – OD600, teichoic acid synthesis inhibitors, primary screen (AID 463173)
# Conditions: S. aureus RN4220 wild type/DeltatarO growth, OD600, 18 h, stronger effect = lower value, screened at 18.75 µg/mL (by protocol)
row,Compound,survival
1,Cc1cc(C)c(NC(=O)Cn2c(=O)n(Cc3ccccc3)c(=O)c3c(C)c(C(=O)N(C)C)sc32)c(C)c1,inactive: 121%
2,COc1cc2c(=O)c(S(=O)(=O)c3ccccc3)cn(CC(=O)Nc3ccccc3C)c2cc1OC,inactive: 84%
3,COc1cc(OC)c(NC(=O)c2c3c(nc4ccccc24)C(=O)N(C2CCCCC2)C3)cc1Cl,inactive: 47%
4,CCN1C(=O)C2C(c3cccs3)NC(C)(C(=O)OC)C2C1=O (configuration not stated),inactive: 110%
5,CCc1cccc(NC(=O)CCS(=O)(=O)c2cc3c4c(c2)CCN4C(=O)CC3)c1,inactive: 81%
6,Cc1cccc(C(=O)Nc2cccc(OCc3cc(=O)n4ccccc4n3)c2)c1,inactive: 72%
7,COc1cc2c(cc1OC)C(COc1ccccc1OC)N(C(=O)c1ccccc1OC)CC2 (configuration not stated),inactive: 73%
8,O=S(=O)(c1ccccc1)N1CCN(S(=O)(=O)N2CCCCC2)CC1,inactive: 101%
9,COc1c(Cl)cc(Cl)cc1CNCCSc1nnnn1C,inactive: 85%
10,O=C(Nc1nc2n(n1)C(c1ccc(F)cc1)C=C(c1ccccc1)N2)c1cccc([N+](=O)[O-])c1 (configuration not stated),inactive: 117%
11,CCC(C)NC(=O)CSc1nc2cc3c(cc2c(=O)n1CCCCCC(=O)NCc1ccc(OC)cc1)OCO3 (configuration not stated),inactive: 60%
12,CCOc1ccccc1NC(=O)CN1CCN(S(=O)(=O)c2ccc(Br)cc2)CC1,inactive: 90%
13,CCC1CCCCN1Cc1cn2c(-c3ccc(Br)cc3)nnc2s1 (configuration not stated),inactive: 69%
14,CCS(=O)(=O)N1CCc2cc(C(=O)Nc3ccc(OC)cc3OC)ccc21,inactive: 88%
15,CC(=O)c1cccc(NC(=O)c2nc(-c3ccccc3)n(-c3cccc(C)c3)n2)c1,inactive: 70%
16,O=C1c2ccccc2-c2onc3ccc(Oc4c(F)c(F)c(F)c(F)c4F)c1c23,inactive: 107%
17,COc1ccccc1N1CCN(C(=O)Cn2c(=O)n3nc(-c4cccc(C)c4)nc3c3ccccc32)CC1,inactive: 66%
18,COc1ccc(CCNC(=O)c2c(C)nn(-c3ccc(F)cc3)c2-n2cccc2)c(OC)c1OC,inactive: 60%
19,Cc1ccc(Nc2sc(C(=O)c3ccccc3)c(N)c2S(=O)(=O)c2ccccc2)c(C)c1,inactive: 99%
20,Cc1ccc(S(=O)(=O)NCc2ccc(/C=N/NC(=O)c3ccco3)o2)cc1,inactive: 98%
21,COc1ccc(-n2ncc(C(=O)Nc3ccc4c(c3)OCCO4)c2C2CCN(C(=O)OC(C)(C)C)CC2)cc1,inactive: 129%
22,CCCCC1(O)CC(C)N(C)CC1C (configuration not stated),inactive: 106%

row,Compound,survival
1,CCOc1ccc(CNC(=O)C2CCCN(S(=O)(=O)N(CC)c3ccc(OCC)cc3)C2)cc1 (configuration not stated),inactive: 117%
2,CCCSc1ncc(Cl)c(C(=O)Nc2c(C(=O)c3ccc(F)cc3)oc3ccccc23)n1,inactive: 85%
3,Cc1ccc(S(=O)(=O)N2CCC(C(=O)Nc3ccc(Oc4ccccc4)cc3)CC2)cc1,inactive: 77%
4,O=C(NCCc1ccccc1)c1ccc2c(c1)CCN2S(=O)(=O)c1ccccc1,inactive: 84%
5,CCN(C(=O)Cn1nc(Cc2ccncc2)c2ccccc2c1=O)c1cccc(C(F)(F)F)c1,inactive: 72%
6,CC(C)Cn1c(=O)c2ccccc2n2c(CCC(=O)Nc3ccc(F)c(F)c3)nnc12,inactive: 84%
7,CCOC(=O)c1c(NC(=O)C(C)Oc2ccc(Cl)c(C)c2)sc2c1CCCC2 (configuration not stated),inactive: 50%
8,O=C(Cn1cc(S(=O)(=O)Cc2ccccc2F)c2ccccc21)NCc1ccccc1Cl,inactive: 60%
9,Cc1cc(C)cc(NC(=O)CN2C(=O)CCc3cc(S(=O)(=O)N4CCCCC4)ccc32)c1,inactive: 77%
10,Cc1nn2c(=O)cc(COC(=O)c3ccc(NC(=O)c4cccs4)cc3)nc2s1,inactive: 140%
11,CC(C)CSc1ccccc1NC(=O)c1sc2nc(-c3ccncc3)ccc2c1N,inactive: 83%
12,O=C(O)c1cc2nc3c(c(C(F)(F)F)n2n1)CCC3,inactive: 117%
13,N#C/C(=C/c1ccc(-c2cccc(C(F)(F)F)c2)o1)C(=O)OC1CCCCC1,inactive: 114%
14,COc1ccc(NC(=O)CCN2CCN(CCO)CC2)cc1,inactive: 74%
15,CCN(c1cc(C)cc(C)c1)S(=O)(=O)c1nnc(NC(=O)c2ccco2)s1,inactive: 51%
16,COc1ccc2[nH]cc(CCNC(=O)c3cnn(-c4ccccc4Cl)c3C3CCN(C(=O)OC(C)(C)C)CC3)c2c1,inactive: 75%
17,Cc1cccc(N2CCN(C(=O)c3ccc(NC(=O)c4nsc5ccccc45)cc3)CC2)c1C,inactive: 60%
18,Cc1ccc(NC(=O)Cn2nnc(-c3nc(-c4ccc(Cl)cc4)no3)c2N)cc1C,inactive: 77%
19,Cc1nc2c(C(=O)NCCc3ccccc3)c[nH]n2c(=O)c1Cc1ccc(F)cc1Cl,active: -15%
20,CCOc1ccc(C(=O)Nc2ccc(-c3nc4ccccc4s3)c(C)c2)cc1OCC,inactive: 80%
21,CCOc1ccccc1C(=O)Nc1cc2c(cc1N1CCOCC1)n(C)c(=O)n2C,inactive: 81%
22,Cc1ccc(CCNC(=O)c2ccc3c(c2)c(C)c(C)n3Cc2ccccc2)cc1,inactive: 125%

row,Compound,survival
1,COC(=O)c1sc2nc3ccccc3cc2c1N,inactive: 114%
2,CCc1nc2c(cnn2-c2ccc(Cl)cc2)c(=O)n1-c1ccc(OC)c(Cl)c1,inactive: 78%
3,Cc1ccc(OCC(=O)Nc2cc(-c3cccc(C)c3)nn2-c2ccccc2)cc1,inactive: 72%
4,COc1ccc(CCNC(=S)N(Cc2ccco2)Cc2cc3cc(OC)c(OC)cc3[nH]c2=O)cc1OC,inactive: 104%
5,CCOc1ccc(N2CC(c3nc4ccccc4n3Cc3cccc(C)c3)CC2=O)cc1 (configuration not stated),inactive: 46%
6,O=[N+]([O-])c1cc(-c2nc(-c3ccccc3)no2)ccc1NCCc1ccccc1,inactive: 85%
7,Cc1ccc2nc(N(Cc3cccnc3)C(=O)c3cccs3)sc2c1,inactive: 68%
8,CCCn1c(CCC(=O)Nc2cccc(CC)c2)nc2cccnc21,inactive: 78%
9,CC1CCCN(c2ccc(C(=O)NCc3ccccc3)cn2)C1 (configuration not stated),inactive: 103%
10,COc1ccc(-n2c(=O)c3sc4ccccc4c3n(CC(=O)NCc3ccccc3)c2=O)cc1,inactive: 87%
11,CCOc1ccc2[nH]c(=O)c(CN(CC3CCCO3)C(=O)N(CC)CC)cc2c1 (configuration not stated),inactive: 108%
12,Cc1ccccc1CNC(=O)c1ccc(CS(=O)Cc2ccc(Cl)cc2)o1 (configuration not stated),inactive: 81%
13,CCn1c(CC2C(=O)N(C)c3ccccc32)nc2ccccc2c1=O (configuration not stated),inactive: 83%
14,COc1ccc(Cl)cc1NC(=O)CSc1nc(-c2ccccc2)c2ccccc2n1,inactive: 80%
15,O=C(Nc1cccc(F)c1)[C@@H](c1ccccc1)N1Cc2ccccc2C1=O,inactive: 38%
16,Cc1nn(C(C)(C)C)c(OC(=O)c2cccc(F)c2)c1Sc1ccccc1,inactive: 62%
17,CC(C)CC(C(=O)NCCc1ccccc1)N1Cc2ccccc2C1=O (configuration not stated),inactive: 85%
18,CCc1ccc(NC(=O)CCCn2nc(C)c3c(C)n(-c4ccccc4)nc3c2=O)cc1,inactive: 88%
19,CCCSc1nnc2n(-c3ccc(OC)cc3)c(=O)c3c4c(sc3n12)COC(C(C)C)C4 (configuration not stated),inactive: 80%
20,CCOc1ccc(CNC(=O)C2CCN(Cc3cc4ccccc4n3Cc3ccccc3C)CC2)cc1,inactive: 60%
21,CC(=O)Nc1ccc2nc(SCCOc3ccccc3)sc2c1,inactive: 87%
22,Cc1ccc(NC(=O)C(=O)NCCCN2CCOCC2)cc1C,inactive: 87%

row,Compound,survival
1,Cc1cccc(NC(=O)C2(C)Cc3ccccc3C(=O)O2)c1 (configuration not stated),inactive: 107%
2,COc1cc(C)c2c(=O)c(-c3nc(C)cs3)coc2c1,inactive: 115%
3,Cc1c(CNC2CCCCCC2)c(C(=O)O)c(C)n1Cc1ccc(F)cc1,inactive: 98%
4,CCc1ccc(CN(Cc2ccco2)C(=O)COc2ccc(Cl)cc2C)cc1,inactive: 80%
5,Cc1cc(C)cc(NC(=O)CCS(=O)(=O)c2ccc3c(c2)oc(=O)n3C)c1,inactive: 72%
6,COC(=O)c1ccc2c(=O)n(CCCCCC(=O)NC(C)C)c(=O)[nH]c2c1,inactive: 73%
7,O=C(NCc1ccccc1)N1CCc2c(sc3c2CCCC3)C1c1ccccc1 (configuration not stated),inactive: 78%
8,Cc1cccc(-n2ncc3c(N4CCN(CCO)CC4)ncnc32)c1,inactive: 82%
9,Cc1ccc(Cl)cc1NC(=O)N1CCc2cc(S(=O)(=O)N3CCC(C)CC3)ccc21,inactive: 71%
10,CCc1ccc2[nH]c(=O)c(CNC3CCCC3)cc2c1,inactive: 107%
11,CCOc1ccc(C(=O)Nc2ccc3nc(SCC(=O)N(C)c4ccccc4)sc3c2)cc1,inactive: 78%
12,CCOC(=O)c1cc(-c2ccc(OC)cc2)n(CCC(=O)Nc2ccc(OC)cc2OC)c1C,inactive: 75%
13,COc1ccccc1CNC(=O)c1ccc(Nc2nc3ccccc3n3nnnc23)cc1,inactive: 66%
14,CCOc1ccc(/C=C/c2nc3ccccc3n2S(=O)(=O)c2cccc(Cl)c2)cc1,inactive: 57%
15,COc1cccc(-c2nc(SCC(=O)NC3CCCC3)c(-c3ccc(F)cc3)[nH]2)c1,inactive: 84%
16,CC1CCN(S(=O)(=O)c2ccc3nc(Nc4cccc(C(F)(F)F)c4)ccc3c2)CC1,inactive: 59%
17,CC(C)c1ccc(/C=C(\C#N)c2nc(-c3cc4ccccc4oc3=O)cs2)cc1,inactive: 76%
18,COc1cc(Cl)c(C)cc1NS(=O)(=O)c1c(C)nc2sccn2c1=O,inactive: 86%
19,COC(=O)c1ccc(Nc2ncnc3c2cnn3-c2ccccc2)cc1,inactive: 90%
20,COc1ccc(C2=C(C)C(=O)N(Cc3ccc(C(=O)Nc4ccc(C)c(C)c4)cc3)S2(=O)=O)cc1,inactive: 112%
21,CCOc1ccccc1NC(=O)C1=C(C)Nc2ncnn2C1c1ccccn1 (configuration not stated),inactive: 19%
